# In the supplement of paper PMC8728848:
# The list shows a part of the results.
# Legend:
# Test in all cases: glycan array binding signal (z-score within array); higher = stronger binding
# Conditions in all cases: glycan notation: IUPAC condensed, linker removed
# [1] = biological target: Fuc(a1-2)Gal(b1-4)GlcNAc(b1-3)Gal(b1-4)GlcNAc(b1-3)Gal(b1-4)GlcNAc
# Procedure, shortened: (§1)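 Glycan array data came from 3228 arrays in the Consortium for Functional Glycomics database, and only arrays with an available protein sequence were kept. Glycan names were put into IUPAC-condensed notation, and columns mapping to the same glycan were averaged. The binding signal is a within-array Z-score, averaged across arrays of one protein sequence run at different concentrations or buffers and across linkers. A negative Z-score can be read as non-binding.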
# [2] = biological target: Fuc(a1-2)Gal(b1-4)GlcNAc(b1-3)GalNAc
# Procedure, shortened: as §1
# [3] = biological target: Fuc(a1-2)Gal(b1-4)GlcNAc(b1-3)[Fuc(a1-2)Gal(b1-4)GlcNAc(b1-6)]GalNAc
# Procedure, shortened: as §1
# [4] = biological target: Fuc(a1-2)Gal(b1-4)GlcNAc(b1-3)[Fuc(a1-3)[Gal(b1-4)]GlcNAc(b1-6)]Gal(b1-4)Glc
# Procedure, shortened: as §1
# [5] = biological target: Fuc(a1-2)Gal(b1-4)GlcNAc(b1-6)GalNAc
# Procedure, shortened: as §1
# [6] = biological target: Fuc(a1-2)Gal(b1-4)GlcNAc6S
# Procedure, shortened: as §1
# [7] = biological target: Fuc(a1-2)Gal(b1-4)[Fuc(a1-3)]GlcNAc
# Procedure, shortened: as §1
# [8] = biological target: Fuc(a1-2)Gal(b1-4)[Fuc(a1-3)]GlcNAc(b1-2)Man(a1-3)[Fuc(a1-2)Gal(b1-4)[Fuc(a1-3)]GlcNAc(b1-2)Man(a1-6)]Man(b1-4)GlcNAc(b1-4)[Fuc(a1-6)]GlcNAc
# Procedure, shortened: as §1
# [9] = biological target: Fuc(a1-2)Gal(b1-4)[Fuc(a1-3)]GlcNAc(b1-2)[Fuc(a1-2)Gal(b1-4)[Fuc(a1-3)]GlcNAc(b1-4)]Man(a1-3)[Fuc(a1-2)Gal(b1-4)[Fuc(a1-3)]GlcNAc(b1-2)Man(a1-6)]Man(b1-4)GlcNAc(b1-4)GlcNAc
# Procedure, shortened: as §1
# [10] = biological target: Fuc(a1-2)Gal(b1-4)[Fuc(a1-3)]GlcNAc(b1-3)Gal(b1-4)[Fuc(a1-3)]GlcNAc
# Procedure, shortened: as §1
# [11] = biological target: Fuc(a1-2)Gal(b1-4)[Fuc(a1-3)]GlcNAc(b1-3)Gal(b1-4)[Fuc(a1-3)]GlcNAc(b1-3)Gal(b1-4)[Fuc(a1-3)]GlcNAc
# Procedure, shortened: as §1
# [12] = biological target: Fuc(a1-2)Gal(b1-4)[Fuc(a1-3)]GlcNAc(b1-3)GalNAc
# Procedure, shortened: as §1
# [13] = biological target: Fuc(a1-2)Gal(b1-4)[Fuc(a1-3)]GlcNAc(b1-3)[Neu5Ac(a2-6)Gal(b1-4)GlcNAc(b1-6)]Gal(b1-4)Glc
# Procedure, shortened: as §1
# [14] = biological target: Fuc(a1-2)Gal3S(b1-4)GlcNAc
# Procedure, shortened: as §1
# [15] = biological target: Fuc(a1-2)Gal6S(b1-3)GlcNAc
# Procedure, shortened: as §1
# [16] = biological target: Fuc(a1-2)Gal6S(b1-3)GlcNAc6S
# Procedure, shortened: as §1
# Fuc(a1-2)Gal6S(b1-4)Glc = biological target: Fuc(a1-2)Gal6S(b1-4)Glc
# Procedure, shortened: as §1
# [17] = biological target: Fuc(a1-2)Gal6S(b1-4)Glc6S
# Procedure, shortened: as §1
# Fuc(a1-2)[Gal(a1-3)]Gal = biological target: Fuc(a1-2)[Gal(a1-3)]Gal
# Procedure, shortened: as §1
# [18] = biological target: Fuc(a1-2)[Gal(a1-3)]Gal(b1-3)GalNAc
# Procedure, shortened: as §1
# [19] = biological target: Fuc(a1-2)[Gal(a1-3)]Gal(b1-3)GalNAc(b1-3)Gal(a1-4)Gal(b1-4)Glc
# Procedure, shortened: as §1
# [20] = biological target: Fuc(a1-2)[Gal(a1-3)]Gal(b1-3)GlcNAc
# Procedure, shortened: as §1
# [21] = biological target: Fuc(a1-2)[Gal(a1-3)]Gal(b1-3)GlcNAc(b1-2)Man(a1-3)[Fuc(a1-2)[Gal(a1-3)]Gal(b1-3)GlcNAc(b1-2)Man(a1-6)]Man(b1-4)GlcNAc(b1-4)GlcNAc
# Procedure, shortened: as §1
# [22] = biological target: Fuc(a1-2)[Gal(a1-3)]Gal(b1-3)GlcNAc(b1-2)Man(a1-3)[Fuc(a1-2)[Gal(a1-3)]Gal(b1-3)GlcNAc(b1-2)Man(a1-6)]Man(b1-4)GlcNAc(b1-4)[Fuc(a1-6)]GlcNAc
# Procedure, shortened: as §1
# [23] = biological target: Fuc(a1-2)[Gal(a1-3)]Gal(b1-3)GlcNAc(b1-3)GalNAc
# Procedure, shortened: as §1
# [24] = biological target: Fuc(a1-2)[Gal(a1-3)]Gal(b1-3)GlcNAc(b1-6)GalNAc
# Procedure, shortened: as §1
# [25] = biological target: Fuc(a1-2)[Gal(a1-3)]Gal(b1-4)Glc
# Procedure, shortened: as §1
# [26] = biological target: Fuc(a1-2)[Gal(a1-3)]Gal(b1-4)GlcNAc
# Procedure, shortened: as §1
# [27] = biological target: Fuc(a1-2)[Gal(a1-3)]Gal(b1-4)GlcNAc(b1-2)Man
# Procedure, shortened: as §1
# [28] = biological target: Fuc(a1-2)[Gal(a1-3)]Gal(b1-4)GlcNAc(b1-2)Man(a1-3)[Fuc(a1-2)[Gal(a1-3)]Gal(b1-4)GlcNAc(b1-2)Man(a1-6)]Man(b1-4)GlcNAc(b1-4)GlcNAc
# Procedure, shortened: as §1
# [29] = biological target: Fuc(a1-2)[Gal(a1-3)]Gal(b1-4)GlcNAc(b1-2)Man(a1-3)[Fuc(a1-2)[Gal(a1-3)]Gal(b1-4)GlcNAc(b1-2)Man(a1-6)]Man(b1-4)GlcNAc(b1-4)[Fuc(a1-6)]GlcNAc
# Procedure, shortened: as §1
# [30] = biological target: Fuc(a1-2)[Gal(a1-3)]Gal(b1-4)GlcNAc(b1-3)GalNAc
# Procedure, shortened: as §1
# [31] = biological target: Fuc(a1-2)[Gal(a1-3)]Gal(b1-4)GlcNAc(b1-3)[Fuc(a1-2)[Gal(a1-3)]Gal(b1-4)GlcNAc(b1-6)]GalNAc
# Procedure, shortened: as §1
# [32] = biological target: Fuc(a1-2)[Gal(a1-3)]Gal(b1-4)GlcNAc(b1-6)GalNAc
# Procedure, shortened: as §1
# [33] = biological target: Fuc(a1-2)[Gal(a1-3)]Gal(b1-4)[Fuc(a1-3)]Glc
# Procedure, shortened: as §1
# [34] = biological target: Fuc(a1-2)[Gal(a1-3)]Gal(b1-4)[Fuc(a1-3)]GlcNAc
# Procedure, shortened: as §1
# [35] = biological target: Fuc(a1-2)[Gal(a1-3)]Gal(b1-4)[Fuc(a1-3)]GlcNAc(b1-3)GalNAc
# Procedure, shortened: as §1
binder,measurement,setting,value
GS7807E-bfa-538-23-538 (Bacteroides fragilis) (protein) TDSFESFNTNEAGFDNDSKKQDFNYYGIPLGIIQQGIYFNYDWGSGKNWPFQTMQNLGADLFSGYVHDFNPFNEGKNNSTYYMMDGWNGSTWDNTYGYIMPEVQKSETINEKDNIGFFGITKILKVELMHRLSDLYGPIVYTQFGSKTGSTPDTQQEAYKAFFNDLDTGIAKIREYQKANPDIESFAKFDILMPQGKRTFSEWIRFANSLRLRLAVRIAMADSKLAVAEAQKALTDEEGLLEGNDEVVAVSTSSGYTNPFGEINKAWGEVFMNANMESLLVGYEDPRMEKYFDKATGSDATSLIDYKGTYKGIRQGTGFSHKNYNGHSKSTITQQTDAVLMTPAEVWFLRAEAALRGWSSESVKDCYEKGVKASFAQWGAAGAEAYLESDRKPSDYVDAFKAANNVKAVNTLTPKWDDAAGNEDKLGRIITQKWLAMFPEGGEAWAEQRRTGYPRLFPVLVNQSEGTVDTNLGPRRLNFFVGIKTTNPEQYTQLVNALGGIDNCGTRLWWDTGRNF,glycan array binding signal (z-score),[1],-0.462
same,glycan array binding signal (z-score),[2],-0.372
same,glycan array binding signal (z-score),[3],0.486
same,glycan array binding signal (z-score),[4],-0.593
same,glycan array binding signal (z-score),[5],2.1
same,glycan array binding signal (z-score),[6],-0.178
same,glycan array binding signal (z-score),[7],-0.65
same,glycan array binding signal (z-score),[8],0.392
same,glycan array binding signal (z-score),[9],0.988
same,glycan array binding signal (z-score),[10],-0.698
same,glycan array binding signal (z-score),[11],-0.685
same,glycan array binding signal (z-score),[12],-0.087
same,glycan array binding signal (z-score),[13],-0.569
same,glycan array binding signal (z-score),[14],-0.564
same,glycan array binding signal (z-score),[15],-0.392
same,glycan array binding signal (z-score),[16],-0.431
same,glycan array binding signal (z-score),Fuc(a1-2)Gal6S(b1-4)Glc,-0.644
same,glycan array binding signal (z-score),[17],-0.639
same,glycan array binding signal (z-score),Fuc(a1-2)[Gal(a1-3)]Gal,-0.417
same,glycan array binding signal (z-score),[18],-0.4
same,glycan array binding signal (z-score),[19],0.24
same,glycan array binding signal (z-score),[20],-0.207
same,glycan array binding signal (z-score),[21],-0.206
same,glycan array binding signal (z-score),[22],1.31
same,glycan array binding signal (z-score),[23],-0.698
same,glycan array binding signal (z-score),[24],-0.086
same,glycan array binding signal (z-score),[25],-0.624
same,glycan array binding signal (z-score),[26],-0.325
same,glycan array binding signal (z-score),[27],-0.627
same,glycan array binding signal (z-score),[28],2.19
same,glycan array binding signal (z-score),[29],-0.063
same,glycan array binding signal (z-score),[30],-0.457
same,glycan array binding signal (z-score),[31],-0.489
same,glycan array binding signal (z-score),[32],-0.155
same,glycan array binding signal (z-score),[33],-0.696
same,glycan array binding signal (z-score),[34],-0.625
same,glycan array binding signal (z-score),[35],-0.433
